According to the supplement of paper PMC4967469:
A lower IC50 marks a more sensitive line; a fit beyond the top or the lowest dose is shown as a bound at that dose. AUC is the area under the same curve over the 256-fold range up to the top dose, as a fraction: 1 means no effect, lower means more sensitive. For part of these data: Any top dose called inferred comes from the curve model; the source does not state it.

Assays:
Assay in all cases: Viability of human cancer cell lines after 72 h of drug (GDSC screen)
[1] = compound: C=CC(=O)Nc1cc(NC(=O)c2ccc(C)c(NC(=O)c3ccno3)c2)cc(C(F)(F)F)c1 [QL-XI-92]; conditions: top dose 10.24 µM; top dose inferred
Description: (§1)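 Human cancer cell lines in 384-well plates, medium with 10% serum, drug for 72 h over a 256-fold dose range (nine 2-fold or five 4-fold steps up to the top dose). Adherent lines were fixed and stained with the nucleic acid dye Syto60, suspension lines read with resazurin; signal relative to control wells, capped at 0 and 100%. One two-parameter sigmoid per drug and line, fitted in a mixed model over all curves with the slope shared within a line.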

[2] = compound: COc1cc2ncnc(Nc3cc(Br)c(O)c(Br)c3)c2cc1OC [WHI-P97]; conditions: top dose 10.24 µM; top dose inferred
Description: as §1

[3] = compound: O=c1cc(CN2CCOCC2)occ1OCCCCCSc1ccnc2cc(C(F)(F)F)ccc12 [EHT 1864]; conditions: top dose 10 µM; top dose inferred
Description: as §1

[4] = compound: CNCc1ccc(-c2[nH]c3cc(F)cc4c3c2CCNC4=O)cc1 [AG-014699]; conditions: top dose 5 µM; top dose inferred
Description: as §1

[5] = compound: CCC1=C[C@@H]2CN(C1)Cc1c([nH]c3ccccc13)[C@@](C(=O)OC)(c1cc3c(cc1OC)N(C)[C@H]1[C@@](O)(C(=O)OC)[C@H](OC(C)=O)[C@]4(CC)C=CCN5CC[C@]31[C@@H]54)C2 [Vinorelbine]; conditions: top dose 0.064 µM; top dose inferred
Description: as §1

[6] = compound: N=C(N)NC(=N)NCCc1ccccc1 [Phenformin]; conditions: top dose 4000 µM; top dose inferred
Description: as §1

[7] = compound: N[C@@H](CSC(c1ccccc1)(c1ccccc1)c1ccccc1)C(=O)O [S-Trityl-L-cysteine]; conditions: top dose 5.12 µM; top dose inferred
Description: as §1

[8] = compound: COc1cc2nccc(Oc3ccc(NC(=O)C4(C(=O)Nc5ccc(F)cc5)CC4)cc3)c2cc1OC [XL-184]; conditions: top dose 5.12 µM; top dose inferred
Description: as §1

[9] = compound: COc1cc2ncnc(Nc3ccc(F)c(Cl)c3)c2cc1OCCCN1CCOCC1 [Gefitinib]; conditions: top dose 0.5 µM
Description: as §1

[10] = compound: O=c1cc(N2CCOCC2)oc2c(-c3cccc4c3sc3ccccc34)cccc12 [NU-7441]; conditions: top dose 2 µM; top dose inferred
Description: as §1

| Cell Line | AUC [1] | IC50 [1] [µM] | AUC [2] | IC50 [2] [µM] | AUC [3] | IC50 [3] [µM] | AUC [4] | IC50 [4] [µM] | AUC [5] | IC50 [5] [µM] | AUC [6] | IC50 [6] [µM] | AUC [7] | IC50 [7] [µM] | AUC [8] | IC50 [8] [µM] | AUC [9] | IC50 [9] [µM] | AUC [10] | IC50 [10] [µM] |
| --- | --- | --- | --- | --- | --- | --- | --- | --- | --- | --- | --- | --- | --- | --- | --- | --- | --- | --- | --- | --- |
| RXF393 (kidney, adherent) | 0.846 | > 10.2 | 0.959 | > 10.2 | 0.927 | > 10 | 0.704 | 1.48 | 0.502 | 0.00406 | 0.932 | > 4000 | 0.847 | > 5.12 | 0.84 | > 5.12 | 0.943 | > 0.5 | 0.969 | > 2 |
| Ramos-2G6-4C10 (Burkitt lymphoma, suspension) | 0.929 | > 10.2 | 0.969 | > 10.2 | 0.938 | > 10 | 0.987 | > 5 | 0.511 | 0.00428 | 0.452 | 188 | 0.688 | 0.981 | 0.854 | 3.15 | 0.937 | > 0.5 | 0.906 | > 2 |
| SBC-1 (small cell lung carcinoma, suspension) | 0.989 | > 10.2 | 0.984 | > 10.2 | 0.982 | > 10 | 0.989 | > 5 | 0.96 | > 0.064 | 0.908 | > 4000 | 0.911 | > 5.12 | 0.975 | > 5.12 | 0.989 | > 0.5 | 0.989 | > 2 |
| SCH (stomach, adherent) | 0.984 | > 10.2 | 0.988 | > 10.2 | 0.959 | > 10 | 0.941 | > 5 | 0.98 | > 0.064 | 0.917 | > 4000 | 0.814 | 3.06 | 0.988 | > 5.12 | 0.988 | > 0.5 | 0.98 | > 2 |
| SF126 (glioma, adherent) | 0.911 | > 10.2 | 0.968 | > 10.2 | 0.95 | > 10 | 0.964 | > 5 | 0.941 | > 0.064 | 0.835 | 2840 | 0.743 | 1.66 | 0.975 | > 5.12 | 0.981 | > 0.5 | 0.973 | > 2 |
| SH-4 (melanoma, adherent) | 0.959 | > 10.2 | 0.909 | > 10.2 | 0.953 | > 10 | 0.974 | > 5 | 0.672 | 0.0159 | 0.54 | 342 | 0.749 | 2.55 | 0.872 | > 5.12 | 0.955 | > 0.5 | 0.967 | > 2 |
